This passage reports binding signal results from publication PMC12136788.

The list shows a part of the results.

T1: UNK ZnF1-6 (called full-length) (human, UniProt Q9C0B0 30-357)
T1 sequence: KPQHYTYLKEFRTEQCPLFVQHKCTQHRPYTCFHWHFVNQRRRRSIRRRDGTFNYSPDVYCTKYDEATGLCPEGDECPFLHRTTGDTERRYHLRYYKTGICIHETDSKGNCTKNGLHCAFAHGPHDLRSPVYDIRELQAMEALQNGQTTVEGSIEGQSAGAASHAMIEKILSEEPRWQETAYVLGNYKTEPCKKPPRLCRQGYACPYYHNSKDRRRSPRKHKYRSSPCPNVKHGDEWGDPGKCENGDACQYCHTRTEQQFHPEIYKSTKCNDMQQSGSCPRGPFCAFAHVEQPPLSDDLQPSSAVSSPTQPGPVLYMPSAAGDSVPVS

B1: ENSG00000136451:be:win_1501|CDS_3pUTR|ENSG00000136451|bound_else_gene|NA|bound_elsewhere_windowed (ssRNA)
RNA: GGGAGUUCUACAGUCCGACGAUCGCAAUGAGACCUGUAGAGAGCAUGCCUUUCUUGCCCCAAGCUUUGCCUACAUCACCGCCUUGGUAAACAGUAUUAUAAAAUCAAAAUAUGGGUAAAAGUAAAUAUUUACCAGCAACUUAACAACAGAGGAUUGAGCAUCA
B2: ENSG00000198589:be:win_801|CDS|ENSG00000198589|bound_else_gene|NA|bound_elsewhere_windowed (ssRNA)
RNA: GGGAGUUCUACAGUCCGACGAUCUCAUUUUGUUGGAGGCUGUUUGAUUGUAACAUCAAUAAAGUCAAAAGGAAAAGGCUUUCAACACUGUGUGAAAUUUGAUUUCAAGCCACAAAAGUGGUAUAUGGUUACCAUAGUACACAUCAACAGAGGAUUGAGCAUCA
B3: chr2:112756978:112757080:-|CDS|ENSG00000169607|unk|FALSE|unique (ssRNA)
RNA: GGGAGUUCUACAGUCCGACGAUCCUUCUGGGCAAAAGGCUGACUUCAGAAUGUGUUUCUUCUAACCCAUACUCUAAGCCUUCUAGCAAGAGUUUUCAACAGUGUGAAGCUGGAUCGUCCACAACAGGAGAACUGUCAAGAAAACAACAGAGGAUUGAGCAUCA
B4: chr6:145805060:145805161:-|CDS|ENSG00000118496|unk|FALSE|bound_elsewhere (ssRNA)
RNA: GGGAGUUCUACAGUCCGACGAUCAGAAGAUCCUAUGGGCCUCCAAGGAAUAGAUCUGAUCACAGCAGCAUUGCUUUUUUGUCUAGGAGAUUCUCCAGGAGGGAGGGGUAUAUCUGAUAGCCGCAUGGCUGAUAUUUAUCACAUCAACAGAGGAUUGAGCAUCA
B5: chr11:130404922:130405557:-|three_prime_utr|ENSG00000134917|control|control|control (ssRNA)
RNA: GGGAGUUCUACAGUCCGACGAUCAUGGGGCGGCAGACCCUAUCAUCAACUGUCCAGUGGACUGGACCUUGCUCGGGUUCAAGUAGAGGGCAUAGGUUAAAAGGUAAAAGUGCACUUAUUGACUCAGACAGGACACUCAGCGUCCAACAGAGGAUUGAGCAUCA
B6: chr8:48920054:48920155:-|CDS|ENSG00000019549|unk|FALSE|unique (ssRNA)
RNA: GGGAGUUCUACAGUCCGACGAUCACCUAUUCAACUUUUUCUGGGCUGGCCAAACAUAAGCAGCUGCACUGCGAUGCCCAGUCUAGAAAAUCUUUCAGCUGUAAAUACUGUGACAAGGAAUAUGUGAGCCUGGGCGCCCUGAAGCAACAGAGGAUUGAGCAUCA
B7: chr2:159432892:159433005:-|CDS|ENSG00000123636|unk|total|mutant (ssRNA)
RNA: GGGAGUUCUACAGUCCGACGAUCACACCUGUAAUGCCCUCUGCCUCUCCCAUCCUGCACCGUCAAGGGAAGGAAAAAGCAGUCCGCAAUAAUGUAAACCCAGUAAAAACACAGCAUCACUCCCAUCCUGCAAAAUCUUCCGUGCAACAGAGGAUUGAGCAUCA
B8: chr22:20586770:20586871:+|3pUTR|ENSG00000099917|unk|total|mutant (ssRNA)
RNA: GGGAGUUCUACAGUCCGACGAUCACACGCCUCCUGUCAGACACUUCCCGGUGUUGGCUUCCUCCGAGAGCCUGGGGUCCGGUCCGCUUUCCUGCUUUUAUCUUCUGCCUUGGGGACCUGCCAAACGAAAUCCCACACCUGUACCAACAGAGGAUUGAGCAUCA
B9: ENSG00000070961:be:win_1051|CDS|ENSG00000070961|bound_else_gene|NA|bound_elsewhere_windowed (ssRNA)
RNA: GGGAGUUCUACAGUCCGACGAUCAAAGCAAAUUUGCCAAAAAAGGAAAAAUCUGUUUUACAAGGGAAACUUACAAAACUGGCUGUUCAGAUUGGCAAAGCAGGUCUGUUGAUGUCUGCCAUCACAGUUAUCAUUCUAGUAUUACAACAGAGGAUUGAGCAUCA
B10: chr5:177457090:177457109:-|3pUTR|ENSG00000113758|msi1_unk|total|mutant (ssRNA)
RNA: GGGAGUUCUACAGUCCGACGAUCGGCCGUUGAGACGCUGUUGCAAAUUCCACCCCUCCUUCCCUGGUCCAGAUUGCCGCUCUCCGUCCUCCCUGCUCAGCUGGCCGGGUUGGAGGCCUCACCCUGCUUGGGGCCUGGCGUGGGCAACAGAGGAUUGAGCAUCA
B11: ENSG00000124766:be:win_3601|3pUTR|ENSG00000124766|bound_else_gene|NA|bound_elsewhere_windowed (ssRNA)
RNA: GGGAGUUCUACAGUCCGACGAUCUGUACUGCGUUUUUCAUUCUUGUAUUUGACUAUUUAAUCCUUUCUACUUGUCGCUAAAUAUAAUUGUUUUAGUCUUAUGGCAUGAUGAUAGCAUAUGUGUUCAGGUUUAUAGCUGUUGUGCAACAGAGGAUUGAGCAUCA
B12: chr5:177595998:177596040:+|3pUTR|ENSG00000184840|msi1_unk|total|mutant (ssRNA)
RNA: GGGAGUUCUACAGUCCGACGAUCCCUGAGCUGCUUCACAUGGUUGUCCAUUCUGGGGCUUAAAGAACUGGGACCAGACCAAGCCGAGGCCUUGGUGCUGGUUGGGGUGGGGCCUGCAGAGUCUCCGUUACUGAUUUCAUUUUCCAACAGAGGAUUGAGCAUCA
B13: chr7:82949737:82949846:-|CDS|ENSG00000186472|unk|FALSE|unique (ssRNA)
RNA: GGGAGUUCUACAGUCCGACGAUCAAGUCCUCAAUAUCUGAGUGCCACAUCUCCACCCAAAGACAAGAAACGCCCAACACCUUUAGAGAUUGGUUAUUCAUCUCACCUCCGGGCAGAUUCCACAGUACAGCUGGCUCCUUCCCCCAACAGAGGAUUGAGCAUCA
B14: chr5:56881662:56881777:+|CDS|ENSG00000095015|unk|total|mutant (ssRNA)
RNA: GGGAGUUCUACAGUCCGACGAUCGAUCUACUUGAGUUCUGCAAGAAUGGUUACUACAGUACCCCAUGUGUUUUCAAAACUGUCCGAAAUGCUGAGUGUUUCCAGUUCCACUCACUUCACCAGGAUGCGUCGCCGUUUGAUGGCCAACAGAGGAUUGAGCAUCA
B15: chr9:133763799:133763900:-|3pUTR|ENSG00000160293|msi1|total|mutant (ssRNA)
RNA: GGGAGUUCUACAGUCCGACGAUCCGAACCGUUUCACUGUCAGCCUGCCCUCGGCGACCCAUCACUGGGUAUGCUAUUGUACACCGAGGAAACCUGGGCCCGCCCCACCCAGAGCGCAGAGGAGGGGGCACCGACAGCGCUGCGCAACAGAGGAUUGAGCAUCA
B16: chr9:137457406:137457901:-|CDS|ENSG00000165802|control|control|control (ssRNA)
RNA: GGGAGUUCUACAGUCCGACGAUCCGCCUGUCCCUCGUCUCCAACGGCUGCUACGAGGGCAGCCUCUCAGAGGAGCCCAGCAUUAGGAAGCCCGCAGGCGAGGGCCCUCAGCCUCGAGUGUACACCAUCUCUGGGGAGCCUGCCCAACAGAGGAUUGAGCAUCA
B17: chr3:179334110:179334217:+|CDS|ENSG00000121864|unk|FALSE|unique (ssRNA)
RNA: GGGAGUUCUACAGUCCGACGAUCACAUACAAAAAUUUUUCCUCAUGUUUGUGAUGACUGUGGGAAAGGCUUUUCAAGUAUGCUAGAAUAUUGCAAGCAUUUAAAUUCACAUUUAUCUGAAGGGAUUUAUUUAUGUCAAUAUUGCAACAGAGGAUUGAGCAUCA
B18: chr3:113978857:113979010:-|three_prime_utr|ENSG00000163617|control|control|control (ssRNA)
RNA: GGGAGUUCUACAGUCCGACGAUCGCAGAAGAACAUUACUCUUUGUUCCUGCAGAGGAAAUACAUGCUGACGUGGUUCCAGCGUAGUCAGGAAAGUCUGGCUAGAAAGAUGGCCCAGGCUGAUCAAUUUUAUUCCCAAAUACUGCAACAGAGGAUUGAGCAUCA
B19: chr1:153662446:153662560:-|CDS|ENSG00000143621|unk|FALSE|unique (ssRNA)
RNA: GGGAGUUCUACAGUCCGACGAUCAAUCACCUUUUUCUCUUUCCUAGAUCUUGCUUCUGAAAUAUCUACCUGGGAUGGAGUGAUAGUAACACCUUCAGAAAAGGCUUAUGAGAAGCCACCAGAGAAGAAGGAAGGAGAGGAAGACAACAGAGGAUUGAGCAUCA
B20: chr4:67508813:67509105:-|CDS|ENSG00000145241|control|control|control (ssRNA)
RNA: GGGAGUUCUACAGUCCGACGAUCAUGCAUCACAAUAGUAGCCGAAAAUCUACUAAGAAAACAAAUCAGUCAUCUAAGAAUAUUAGGAAAAAAACUAUUCCACUUAAAAGGCAGAAGACAGCAACUAAAGGCAACCAAAGAGUACAACAGAGGAUUGAGCAUCA
B21: chr3:51993521:51994126:-|three_prime_utr|ENSG00000162244|control|control|control (ssRNA)
RNA: GGGAGUUCUACAGUCCGACGAUCCAGCUUCAGUUCCAGCUCAGGCUCCCAAACGUACCCAGGCCCCUACAAAGGCUUCAGAGUAGAUAUCUCUGCCAACAUGAGGACAGAAGGACUGGUGCGACCCCCCACCCCCGCCCCUGGCAACAGAGGAUUGAGCAUCA
B22: chr22:46679111:46679212:+|3pUTR|ENSG00000075240|msi1|total|mutant (ssRNA)
RNA: GGGAGUUCUACAGUCCGACGAUCAGGGCCCGGCAGUGCCCAAGGAUGGGUCCGGGGCCUCGGGGCCAAUGAGCGCCUCUUCCCCGGUGCUGGGAUUCAGUCCCCAAACACAGCGGGAGGGGUCCCUGGGGCAGAUGGGGCUUUCAACAGAGGAUUGAGCAUCA

This test addresses T1, UNK ZnF1-6 (called full-length). The experiment in a line: nsRBNS (natural sequence RNA bind-n-seq); RBNS binding buffer (assumed for nsRBNS): 25 mM Tris pH 7.5, 150 mM KCl, 3 mM MgCl2, 0.01% Triton X-100, 500 ug/ml BSA, 20 U/ml SUPERase-In, 4 C; UNK is unkempt and MSI1 is Musashi-1; names of the RNAs are library labels; protein concentration not given here; high values mean tight binding.
B1 had a binding signal of 0.554 enrichment R.

The molecule B2 showed a binding signal of 0.348 enrichment R.

B3 came in with a binding signal of 0.661 enrichment R.

As for B4, the binding signal came to 0.71 enrichment R.

B5 displayed a binding signal of 0.809 enrichment R.

B6 showed a binding signal of 0.677 enrichment R.

In turn, B7 had a binding signal of 0.715 enrichment R.

Take B8: the binding signal is 0.93 enrichment R.

B9 gave a binding signal of 0.51 enrichment R.

B10 had a binding signal of 1.17 enrichment R.

B11: the binding signal turned out to be 0.795 enrichment R.

The molecule B12 returned a binding signal of 0.79 enrichment R.

B13 displayed a binding signal of 0.825 enrichment R.

In turn, B14 returned a binding signal of 0.498 enrichment R.

B15 registered a binding signal of 0.734 enrichment R.

As for B16, the binding signal came out at 0.634 enrichment R.

Molecule B17 came in with a binding signal of 0.445 enrichment R.

For the molecule B18, the binding signal was determined as 0.575 enrichment R.

Regarding B19, the binding signal turned out to be 0.671 enrichment R.

B20 came in with a binding signal of 0.475 enrichment R.

Molecule B21 displayed a binding signal of 1.15 enrichment R.

B22 came in with a binding signal of 0.704 enrichment R.
